Values marked as one replicate rest on one cluster of the flow cell; about a third of the high ones do not repeat.
Test system: ATP
Assay: switch fluorescence ratio, 500 uM ATP over buffer (Cy3 cluster intensity, sum of 5 cycles each) (fold (ratio)); higher = stronger signal-on switching upon ATP binding; sequences stand for … in TCGTCGGCAGCGTCAGATGTGTATAAGAGACAGTTTTTTTTTTTTTTTTTTTTTTTTT…TC
Conditions: aptamer strand: ATP DNA aptamer (quencher-CACCTGGGGGAGTATTGCGGAGGAAGG + anchor), 100 nM annealed; ATP concentration: 500 uM; one replicate
Procedure, shortened: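 For every switch-domain sequence, the fluorescence ratio is the mean of per-cluster values, each being summed target-cycle Cy3 intensity over summed buffer-cycle Cy3 intensity. Clusters outside 100-1000 RFU were excluded. On a modified Illumina MiSeq flow-cell, the Cy3-labelled switching-strand clusters were annealed to 100 nM quencher-labelled ATP aptamer, imaged in selection buffer and then after 15 min with 500 uM ATP at 22 °C. Five such cycles were run, with NaOH stripping and re-annealing between them.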
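Further: ATP exposure 15 min at 22 °C before imaging.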

Sequence | switch fluorescence ratio
GGGCCGGGTG | 0.99
AGACGGATAC | 1.15
CGGCCGACGT | 0.997
TCGGTAGGGT | 1.01
CTGCGATCCA | 1.02
AGCGTCAGGA | 0.984
TACTTGTATA | 1.03
CCGCGAGTAA | 2.12
AGGGACAACA | 1.08
CCGCGACATG | 1.3
TGACGGCATT | 1.04
ACAAGTCCTA | 0.968
CCCTTAACGG | 1.2
TAATGTGAGA | 1.03
CGAGGCCGTG | 1.05
ACCATAATAG | 1.04
TGAGCAGTCT | 1.06
AGGATAAATC | 1
TTATATTCGA | 1
TGCACTGT | 1.06
ACGTGGGACG | 0.922
GATGTACCGT | 1.05
GACCTTAAAA | 1.03
CTTCGGAGCA | 3.94
GCCCGGAAAA | 1.01
TGGGGTGAAA | 0.973

Sequence | switch fluorescence ratio
GCACAAGTCT | 1.03
GTAAACAAGA | 0.957
TAAATGCGTA | 1
CCTGCCCGCG | 1.69
TCTACATGTT | 0.966
AAGGTACGG | 1.03
AAAAGTAGCG | 1.11
AGCGCATACG | 1.18
TAACTCTACG | 1.2
CCGCCCTCGC | 3.46
ATGTAAAGGA | 0.979
AGCCTCAGCA | 1.29
GCAACTAAT | 2
GTTTTTCTTG | 0.988
CAGAAGAGTA | 1.01
GTAACTAAGA | 1.02
TGAAAAATG | 0.925
TGATGCGGAG | 0.954
CATCGACGAG | 1.05
CTTGGTGCGT | 0.975
TCTATGATCA | 0.988
TTGGCTTCGC | 1.04
GAAACTCTG | 1.02
TTAGAGCATC | 1.02
GGTTTAGTCG | 0.961
GCTAAGGGTA | 1.01

Sequence | switch fluorescence ratio
TATTTGTTT | 1
TTAGGAAATA | 1
TATCTATTGG | 0.962
GAAGTCAT | 0.993
GATATAGATC | 0.966
TTGCATGAAT | 0.98
ATGGAAGATC | 0.97
AATGCGGCCG | 0.999
CATATGGCCC | 0.989
TCAAAATATC | 1.01
GAGTGTGGGT | 0.982
GGCCGGCCCG | 0.984
GCAATGTGG | 1.04
AAGACTACAG | 0.991
GGTCGCTCGT | 0.977
CGCTTATGTG | 0.997
AGGGTGAAGT | 1.05
CTATTTATGG | 0.972
AAGGTGGGCG | 1
CTGTATAAGA | 0.969
TGAACCCTTT | 0.95
CTAGATCTGC | 0.988
TAAAATATGA | 1.01
GCTGGTGACG | 1
GATACATGTT | 1.05
ACCCTGGCGT | 1.01

Sequence | switch fluorescence ratio
GATCTGGGG | 0.984
CGTTCAAGGT | 1.03
CTTGTAAACT | 0.966
AGGCATAGAC | 1.1
GACTTGTGCG | 1.02
GTGAAGCGGT | 0.97
TATTTAGCTA | 1.03
GCTGGCATAC | 2.32
GTACTAGTCG | 1.01
AGCGCCATTC | 1.19
ACAAAGGAGG | 1.01
CAACGGCCGG | 0.995
TGGGTGCCTT | 0.943
GTAATAGCGG | 1.01
AAGCACGCAC | 1.89
GTGAGCTGTT | 1.02
TGTCTTCTCT | 1
CACAGCCGCC | 1.35
ATTCGACTAA | 1.03
CACGAGGGA | 1.01
CAATGTCTTT | 0.963
CTAATCAACG | 1.06
GACCCTTTGT | 0.996
TGGACACTG | 1.1
TGTTTTGCTG | 0.984
CGGCTATAGA | 0.975

Sequence | switch fluorescence ratio
TGTAGACATG | 1
TTACATAATG | 1.05
CCCTCAATTG | 1.07
ATCGCTAATT | 1.02
AGTTCCAGGC | 0.985
GAGGAGTAGT | 0.96
GACGTAAATG | 1.02
TGACTTCGGA | 1.01
CCGTAGGGGG | 1.04
TCCAAGGTGT | 3.16
GTGGCAGAAT | 0.987
TAAATCGTTC | 1.05
GAGGGAGAGG | 1.02
CAAGGGCTTT | 1.03
ATCTAATTCT | 1.05
GGTGTCTTCC | 1.1
TAATGAACAG | 1.02
CGGGGGGAGT | 1.01
CGTGTAGCA | 1.02
AGTATTTATC | 0.973
GTCTGGCAAT | 1.05
TAAGGACTGT | 1.03
CACTGGGCTG | 0.952
CGACCTATTA | 1.04
TGTTATCGCT | 1.01
GAACGCCGAC | 1.51

Sequence | switch fluorescence ratio
GGGTCCCAAA | 1.01
ATGGGATCGT | 0.994
AGGGGGTAG | 0.991
GGGTATCGCC | 0.993
CTAGGGTCGG | 0.935
TTCTATCTTG | 0.962
TCGCCAGGCC | 1.02
ACCTATGTCC | 1.02
ATAGGGTGAC | 0.988
TCATTTCCAG | 0.994
GCCCCGACCG | 1.2
CGAGTCAAAC | 1.34
CAGGTGCTAA | 1.19
AGTTGCTCGC | 1.05
CGGAGTGGGT | 1.09
AAATGGTGCA | 1.01
GTATTCCGCC | 1.09
CGTAGCGGCA | 1.07
GTCGAATGAC | 1
TGATGGAGCT | 1.06
CTAGTGGTCC | 1.02
AGCTTAGTAT | 1.01
GTACTGGTTC | 1.03
CTTTAAGATC | 1.07
TCAGGCCTAG | 1.02
CGGCAAAGCC | 1

Sequence | switch fluorescence ratio
CAAAAAACG | 0.996
GGCATGAGGC | 0.973
AGATTGAGTG | 0.982
GACATACGGG | 1.22
TAGAGTGAGT | 0.964
CGTGCGCTGT | 1.06
TCTGTATAGG | 0.966
ACGCTTTACT | 2.02
TTACTATG | 1.04
AGATCGCGAA | 1.09
CGGGCGCGAA | 1.01
CCCGGCTAAG | 1.06
GGACACTCAG | 1
CGGCGGGCGT | 0.942
TTATTTAAG | 0.932
CAATTTCACA | 1.04
ATAATTCACA | 1
TATGGCGTCA | 0.998
AGCCTGAGTG | 0.986
AGGAGGGAAG | 0.93
AGGGGGCGGA | 0.937
GTTATTGTTA | 0.996
ACGATAAGAG | 1.12
AATTAACCT | 2.06
TTTACGGGGT | 0.933
CAGCGAAGGC | 1

Sequence | switch fluorescence ratio
ATCTAGCGTT | 0.987
AAGTGCAGGC | 1.03
TGCCTACGGT | 1.01
TGTTTGACCC | 1.05
GCCGAGACCG | 1.13
GGCTTATAAT | 1
TTAAAGAGGA | 0.979
AGGCAACTGC | 1.08
ACCTTAACAT | 1.05
TGCGCGTACG | 0.992
ATTTTGACTA | 1.01
TTCACGAGAA | 1.01
AGTAAGAGTG | 1
TTTTGTCAGA | 0.96
TAGCACAAAC | 1.57
TAATCCCGGA | 1.04
TTAGTGGCCT | 0.986
AGCCCTTTT | 0.988
TATCGCTGCC | 1.12

— the supplement of paper PMC10126150
